Measurements reported in publication PMC9911399, “Two distinct binding modes provide the RNA-binding protein RbFox with extraordinary sequence specificity”.
Residue numbers refer to the chain shown, from its start. The list shows a part of the results.

T1: RBFOX1 RRM RbFoxmut (Fox-RRM*) (Homo sapiens, UniProt Q9NWB1 109-208, R118D;E147R;N151S;E152T)
T1 sequence: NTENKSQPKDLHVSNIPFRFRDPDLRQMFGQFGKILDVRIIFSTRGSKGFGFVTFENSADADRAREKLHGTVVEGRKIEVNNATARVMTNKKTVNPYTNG

B1: GCGACAU (DNA:RNA)
RNA: GGGAGACCGGAAUUCAGAUUGUCCGCGACAUUUAAAUCCCGUCGUAGCCACCA
DNA 1: CAATCTGAATTCCGGTCTCCC
DNA 2: TGGTGGCTACGACGGGATT
B2: GCAGCAG (DNA:RNA)
RNA: B1 RNA with G27A, A28G, U31G
DNA 1: CAATCTGAATTCCGGTCTCCC
DNA 2: TGGTGGCTACGACGGGATT
B3: GUAGUCC (DNA:RNA)
RNA: B1 RNA with C26U, G27A, A28G, C29U, A30C, U31C
DNA 1: CAATCTGAATTCCGGTCTCCC
DNA 2: TGGTGGCTACGACGGGATT
B4: GAGAAUU (DNA:RNA)
RNA: B1 RNA with C26A, C29A, A30U
DNA 1: CAATCTGAATTCCGGTCTCCC
DNA 2: TGGTGGCTACGACGGGATT
B5: ACCAGGC (DNA:RNA)
RNA: B1 RNA with G25A, G27C, C29G, A30G, U31C
DNA 1: CAATCTGAATTCCGGTCTCCC
DNA 2: TGGTGGCTACGACGGGATT
B6: GUCUUAA (DNA:RNA)
RNA: B1 RNA with C26U, G27C, A28U, C29U, U31A
DNA 1: CAATCTGAATTCCGGTCTCCC
DNA 2: TGGTGGCTACGACGGGATT
B7: AGGCCGU (DNA:RNA)
RNA: B1 RNA with G25A, C26G, A28C, A30G
DNA 1: CAATCTGAATTCCGGTCTCCC
DNA 2: TGGTGGCTACGACGGGATT
B8: UCGUCAG (DNA:RNA)
RNA: B1 RNA with G25U, A28U, U31G
DNA 1: CAATCTGAATTCCGGTCTCCC
DNA 2: TGGTGGCTACGACGGGATT
B9: ACGCGUU (DNA:RNA)
RNA: B1 RNA with G25A, A28C, C29G, A30U
DNA 1: CAATCTGAATTCCGGTCTCCC
DNA 2: TGGTGGCTACGACGGGATT
B10: ACUAAAG (DNA:RNA)
RNA: B1 RNA with G25A, G27U, C29A, U31G
DNA 1: CAATCTGAATTCCGGTCTCCC
DNA 2: TGGTGGCTACGACGGGATT
B11: AUGACCA (DNA:RNA)
RNA: B1 RNA with G25A, C26U, A30C, U31A
DNA 1: CAATCTGAATTCCGGTCTCCC
DNA 2: TGGTGGCTACGACGGGATT
B12: AUUCAGA (DNA:RNA)
RNA: GGGAGACCGGAAUUCAGAUUGUCCAUUCAGAUUAAAUCCCGUCGUAGCCACCA
DNA 1: CAATCTGAATTCCGGTCTCCC
DNA 2: TGGTGGCTACGACGGGATT
B13: CUGGGGG (DNA:RNA)
RNA: B12 RNA with A25C, U27G, C28G, A29G, A31G
DNA 1: CAATCTGAATTCCGGTCTCCC
DNA 2: TGGTGGCTACGACGGGATT
B14: GAUCUUC (DNA:RNA)
RNA: B12 RNA with A25G, U26A, A29U, G30U, A31C
DNA 1: CAATCTGAATTCCGGTCTCCC
DNA 2: TGGTGGCTACGACGGGATT
B15: UGAUUCA (DNA:RNA)
RNA: B12 RNA with A25U, U26G, U27A, C28U, A29U, G30C
DNA 1: CAATCTGAATTCCGGTCTCCC
DNA 2: TGGTGGCTACGACGGGATT
B16: GGCUCUU (DNA:RNA)
RNA: B1 RNA with C26G, G27C, A28U, A30U
DNA 1: CAATCTGAATTCCGGTCTCCC
DNA 2: TGGTGGCTACGACGGGATT
B17: CGAUGGA (DNA:RNA)
RNA: B12 RNA with A25C, U26G, U27A, C28U, A29G
DNA 1: CAATCTGAATTCCGGTCTCCC
DNA 2: TGGTGGCTACGACGGGATT
B18: ACGACGC (DNA:RNA)
RNA: B1 RNA with G25A, A30G, U31C
DNA 1: CAATCTGAATTCCGGTCTCCC
DNA 2: TGGTGGCTACGACGGGATT
B19: GCGUGUU (DNA:RNA)
RNA: B1 RNA with A28U, C29G, A30U
DNA 1: CAATCTGAATTCCGGTCTCCC
DNA 2: TGGTGGCTACGACGGGATT
B20: CGAGUUA (DNA:RNA)
RNA: B12 RNA with A25C, U26G, U27A, C28G, A29U, G30U
DNA 1: CAATCTGAATTCCGGTCTCCC
DNA 2: TGGTGGCTACGACGGGATT
B21: UCCGCGC (DNA:RNA)
RNA: B1 RNA with G25U, G27C, A28G, A30G, U31C
DNA 1: CAATCTGAATTCCGGTCTCCC
DNA 2: TGGTGGCTACGACGGGATT
B22: ACGAGGG (DNA:RNA)
RNA: B1 RNA with G25A, C29G, A30G, U31G
DNA 1: CAATCTGAATTCCGGTCTCCC
DNA 2: TGGTGGCTACGACGGGATT
B23: CUGGCAA (DNA:RNA)
RNA: B1 RNA with G25C, C26U, A28G, U31A
DNA 1: CAATCTGAATTCCGGTCTCCC
DNA 2: TGGTGGCTACGACGGGATT
B24: AUUCAAC (DNA:RNA)
RNA: B12 RNA with G30A, A31C
DNA 1: CAATCTGAATTCCGGTCTCCC
DNA 2: TGGTGGCTACGACGGGATT
B25: AACUACU (DNA:RNA)
RNA: B12 RNA with U26A, U27C, C28U, G30C, A31U
DNA 1: CAATCTGAATTCCGGTCTCCC
DNA 2: TGGTGGCTACGACGGGATT
B26: UACAGGA (DNA:RNA)
RNA: B12 RNA with A25U, U26A, U27C, C28A, A29G
DNA 1: CAATCTGAATTCCGGTCTCCC
DNA 2: TGGTGGCTACGACGGGATT
B27: GUCUCGA (DNA:RNA)
RNA: B12 RNA with A25G, U27C, C28U, A29C
DNA 1: CAATCTGAATTCCGGTCTCCC
DNA 2: TGGTGGCTACGACGGGATT
B28: UCUAUUC (DNA:RNA)
RNA: B1 RNA with G25U, G27U, C29U, A30U, U31C
DNA 1: CAATCTGAATTCCGGTCTCCC
DNA 2: TGGTGGCTACGACGGGATT
B29: UUAUGGG (DNA:RNA)
RNA: B12 RNA with A25U, U27A, C28U, A29G, A31G
DNA 1: CAATCTGAATTCCGGTCTCCC
DNA 2: TGGTGGCTACGACGGGATT
B30: GACCGCC (DNA:RNA)
RNA: B12 RNA with A25G, U26A, U27C, A29G, G30C, A31C
DNA 1: CAATCTGAATTCCGGTCTCCC
DNA 2: TGGTGGCTACGACGGGATT
B31: UCUCCAG (DNA:RNA)
RNA: B1 RNA with G25U, G27U, A28C, U31G
DNA 1: CAATCTGAATTCCGGTCTCCC
DNA 2: TGGTGGCTACGACGGGATT

These binders were tested against T1, RBFOX1 RRM RbFoxmut (Fox-RRM*) (assay: EMSA; HiTS-Eq, 1 nM pool, 10 min; buffer printed only for the single-RNA assays: 10 mM Tris pH 7.5, 150 mM NaCl, 3.4 mM EDTA, 0.001% NP-40, 30 C). Settings: tags: His6 N-terminal (pET28a); label: 5' 32P.
In short: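 Relative association constants, normalised to the cognate motif, were derived by comparing read counts of each RNA species with those of the control reaction. The RNA sequenced was the free fraction, separated by 8% native PAGE after a 10 min equilibration in 50 µL of 1 nM 5′-radiolabelled RNA (7 randomized nucleotides) with increasing concentrations of purified wild-type or mutant RbFox RRM.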

Row | Binder | binding signal
1 | B1 | 0.0653 KA relative to UGCAUGU
2 | B2 | 0.0883 KA relative to UGCAUGU
3 | B3 | 0.0984 KA relative to UGCAUGU
4 | B4 | 0.0953 KA relative to UGCAUGU
5 | B5 | 0.0949 KA relative to UGCAUGU
6 | B6 | 0.0967 KA relative to UGCAUGU
7 | B7 | 0.0905 KA relative to UGCAUGU
8 | B8 | 0.102 KA relative to UGCAUGU
9 | B9 | 0.133 KA relative to UGCAUGU
10 | B10 | 0.12 KA relative to UGCAUGU
11 | B11 | 0.0786 KA relative to UGCAUGU
12 | B12 | 0.0812 KA relative to UGCAUGU
13 | B13 | 0.0824 KA relative to UGCAUGU
14 | B14 | 0.0558 KA relative to UGCAUGU
15 | B15 | 0.126 KA relative to UGCAUGU
16 | B16 | 0.0791 KA relative to UGCAUGU

Row | Binder | binding signal
17 | B17 | 0.0893 KA relative to UGCAUGU
18 | B18 | 0.104 KA relative to UGCAUGU
19 | B19 | 0.156 KA relative to UGCAUGU
20 | B20 | 0.109 KA relative to UGCAUGU
21 | B21 | 0.0955 KA relative to UGCAUGU
22 | B22 | 0.0724 KA relative to UGCAUGU
23 | B23 | 0.0738 KA relative to UGCAUGU
24 | B24 | 0.0828 KA relative to UGCAUGU
25 | B25 | 0.115 KA relative to UGCAUGU
26 | B26 | 0.0714 KA relative to UGCAUGU
27 | B27 | 0.242 KA relative to UGCAUGU
28 | B28 | 0.0896 KA relative to UGCAUGU
29 | B29 | 0.0747 KA relative to UGCAUGU
30 | B30 | 0.0887 KA relative to UGCAUGU
31 | B31 | 0.0963 KA relative to UGCAUGU
